Test results taken from patent US20260101892A1, “METHOD TO INHIBIT PROLIFERATION OF A PHYTOPATHOGEN ON PLANTS AND COMPOSITIONS USED FOR THIS PURPOSE” (CYSBIO APS, priority 2022, published 2026).

Experiments:
Puccinia striiformis = assay: Yellow rust in wheat, greenhouse trial, contact fungicide; settings: 10% zosteric acid with 0.1% Tween
[1] = system: powdery mildew (Podosphaera aphanis); assay: Powdery mildew in strawberries, controlled environment trial; settings: zosteric acid at 3%, 6%, 9%

O=C(O)/C=C/c1ccc(OS(=O)(=O)O)cc1 [zosteric acid]
efficacy compared with currently used fungicides (Puccinia striiformis): not as effective in preventing disease as currently used fungicides | development of yellow rust (Puccinia striiformis; 150 L/ha, sprayed one day before inoculation): drastically reduces the development of yellow rust | efficacy compared with standard fungicide Karma (3 kg/ha) [1]: not statistical difference between the efficacy of Karma and the zosteric acid treatments | control of disease development (% area of leaves infected) ([1]; four applications day 0, 7, 14, 21, FIG. 6, evaluated 30 days after first treatment): efficient at controlling disease development at all the concentrations tested
